Measurements from PubChem BioAssay AID1460 (National Center for Advancing Translational Sciences (NCATS), 2008).
The campaign covered roughly 270,000 compounds. About 5,800 (2.1%) were called active. This list was built around the results that the source calls inconclusive (neither active nor inactive); the mix of calls is not that of the screen. Calls come from the whole dose curve; as a rule, active = well fitted inhibition curve with a large enough effect; inconclusive = small, poorly fitted or top-dose-only effect; inactive = flat fitted curve, though single readings scatter. Where the call is inconclusive, the potency comes from a doubtful curve fit.

target: Microtubule-associated protein tau (Homo sapiens) (UniProt P10636); experiment: qHTS for Inhibitors of Tau Fibril Formation, Thioflavin T Binding; details: recombinant tau K18 P301L (four-repeat tau fragment), heparin-induced fibrillization, ThT fluorescence; series mostly up to 57.4 µM; note: nearly all actives have a fitted effect of over 55% in size
Summary of the method: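 Heparin-induced (20 uM) aggregation of recombinant human K18 P301L tau, 15 uM unlabeled with 0.24 uM labeled, pH 7 acetate buffer, 6 hr at 37 C with compound. Fibrils quantified by 30 uM ThT fluorescence after 1 hr ambient incubation.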
% is set by controls: 0 for no effect and ±100 for the full control effect; potency is the fitted concentration of half-maximal effect; tags give direction and shape of the fitted curve.

UniProt P10636, sequence (P10636 whole entry, looked up, the tested form may be a part): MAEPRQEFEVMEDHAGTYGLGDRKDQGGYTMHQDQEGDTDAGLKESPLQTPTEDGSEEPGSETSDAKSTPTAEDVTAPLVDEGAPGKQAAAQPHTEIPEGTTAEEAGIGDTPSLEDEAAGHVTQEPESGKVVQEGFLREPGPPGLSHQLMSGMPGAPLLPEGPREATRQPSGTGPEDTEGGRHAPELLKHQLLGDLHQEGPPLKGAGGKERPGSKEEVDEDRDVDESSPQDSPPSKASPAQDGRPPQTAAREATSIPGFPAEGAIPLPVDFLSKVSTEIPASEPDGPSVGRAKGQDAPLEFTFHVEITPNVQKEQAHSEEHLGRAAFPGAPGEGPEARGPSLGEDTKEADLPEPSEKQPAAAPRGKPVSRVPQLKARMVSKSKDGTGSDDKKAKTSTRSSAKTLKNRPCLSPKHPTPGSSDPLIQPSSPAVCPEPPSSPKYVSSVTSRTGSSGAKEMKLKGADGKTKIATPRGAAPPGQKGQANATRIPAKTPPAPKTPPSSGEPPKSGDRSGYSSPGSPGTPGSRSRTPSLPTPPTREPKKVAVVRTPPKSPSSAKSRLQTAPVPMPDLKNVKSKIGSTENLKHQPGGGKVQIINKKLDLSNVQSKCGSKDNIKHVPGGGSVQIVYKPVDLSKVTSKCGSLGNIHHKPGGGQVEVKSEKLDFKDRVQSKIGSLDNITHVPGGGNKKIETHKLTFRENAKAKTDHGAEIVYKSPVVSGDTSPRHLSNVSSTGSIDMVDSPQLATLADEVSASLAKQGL

Structure (SMILES)	Potency	activity, negative = inhibition
CCOC(=O)N1CCN(C(=O)C2CCN(Cc3cccc(OCc4ccccc4)c3)CC2)CC1	inactive	–
Cc1nc2c(-c3ccccc3)c(C)nn2c(N)c1-c1ccccc1	inconclusive: 31.6 µM [inhibitor, partial curve]	–
O=c1[nH]c(-c2ccccn2)cc2ccccc12	inactive	–
O=C(N/N=C/c1ccc([N+](=O)[O-])cc1)c1ccc(COc2ccccc2-c2ccccc2)cc1	inconclusive: 7.94 µM [inhibitor, partial curve]	–
C=CCNC(=O)COc1c(C)ccc(C)c1C	inactive	–
CCCc1nnc(NC(=O)c2c(O)c3c([nH]c2=O)CCCC3)s1	inconclusive: 1 µM [inhibitor, full curve]	–
CC1CCc2c(sc(/N=C/c3ccco3)c2C(N)=O)C1 (stereo unspecified)	inconclusive: 1 µM [inhibitor, full curve]	–
COCCNC(=O)COc1ccc(OCCNC[C@@H](O)COc2ccccc2)cc1	inactive	–
Cc1cc(C)n2nc(CNC(=O)c3cccc(N(C)C)c3)nc2n1	inconclusive: 0.0501 µM [inhibitor, full curve, poor fit]	–
Cc1ccc(S(=O)(=O)Nc2ccc(Br)cc2/C=N/n2cnnc2)cc1	inconclusive: 25.1 µM [inhibitor, partial curve]	–
COCCCNC(=O)C1CCN(Cc2cc3ccccc3n2Cc2cccc(Cl)c2)CC1	inactive	–
CC1=NOC(=O)/C1=C\c1ccc(-c2cccc(Cl)c2)o1	active: 15.8 µM	–
O=C(Nc1cc(S(=O)(=O)Nc2ccc(Cl)cc2)ccc1N1CCCCC1)c1ccc(F)cc1	inactive	–
CCOC(=O)CNC(=O)CSc1nnc(-c2ccco2)n1Cc1ccco1	inconclusive: 39.8 µM [inhibitor, single point]	–
CC(NCc1ccc2c(c1)n(C)c(=O)n2C)c1ccccc1 (stereo unspecified)	inactive	–
CCOC(=O)c1sc2ccccc2c1OC(=O)c1ccccc1OC	inconclusive: 15.8 µM [inhibitor, partial curve]	–
CCN(CC)c1ncnc2sc(C(=O)N3CCN(c4ccc(OC)cc4)CC3)c(C)c12	inactive	–
CCOC(=O)c1ccc(Nc2ncccc2[N+](=O)[O-])cc1	active: 2.24 µM	–
CN(C)S(=O)(=O)c1ccc(/C(O)=C2/C(=O)C(=O)N(Cc3cccnc3)C2c2ccncc2)cc1 (stereo unspecified)	inactive	–
CCOC(=O)c1cccc(NC(=O)c2ccc(N(C)C)cc2)c1	inconclusive: 39.8 µM [inhibitor, partial curve]	–
C[C@H](NC(=O)c1nc[nH]c1C(=O)N[C@@H](C)c1ccccc1)C(=O)OC(C)(C)C	inactive	–
O=c1c2c(nc3cc(-c4ccc(F)cc4)[nH]n13)CCCC2	inactive	–

Structure (SMILES)	Potency	activity, negative = inhibition
Cc1oc(-c2ccccc2Cl)cc1-c1nn2c(-c3ccco3)nnc2s1	inconclusive: 8.91 µM [inhibitor, partial curve]	–
Cn1c(=O)[nH]c(Nc2ccc(F)cc2)c([N+](=O)[O-])c1=O	inactive	–
COc1ccc(Nc2cc(C(=O)NCc3ccccn3)c3ccccc3n2)c(OC)c1	inconclusive: 10 µM [inhibitor, partial curve]	–
COc1ccc(COC(=O)Nc2cc3c(C(F)(F)F)nn(C)c3s2)cc1	inconclusive: 20 µM [inhibitor, partial curve]	–
CCOC(=O)c1ccc2nc(Nc3nc4ccc(F)cc4s3)sc2c1	inconclusive: 1.26 µM [inhibitor, full curve]	–
CCCc1cc(=O)[nH]c(SCc2csc(-c3ccccc3)n2)n1	inconclusive: 20 µM [inhibitor, single point]	–
COc1ccc2c(c1)c1ccccc1n2C	inconclusive: 14.1 µM [inhibitor, partial curve]	–
COc1ccc(NCc2ccc(OC)c(OC)c2)cc1	inconclusive: 22.4 µM [inhibitor, partial curve]	–
CCn1cc(C(=O)N(C)c2cc(C)ccc2C)c2cc(OC)c(OC)cc2c1=O	inactive	–
O=S(=O)(Nc1nc2n(n1)C(c1ccc(F)cc1)C=C(c1ccc(Cl)cc1)N2)c1ccccc1 (stereo unspecified)	inconclusive: 11.2 µM [inhibitor, partial curve]	–
Clc1ccc(/C=N/Nc2nc(Cl)nc3ccccc23)cc1	inconclusive: 15.8 µM [inhibitor, partial curve]	–
Cc1ccccc1C(=O)NNC(=O)c1cc(N)cc([N+](=O)[O-])c1	inconclusive: 17.8 µM [inhibitor, partial curve]	–
Cc1ccc(NS(=O)(=O)c2ccc3nc(-c4ccccc4)[nH]c3c2)cc1Cl	inconclusive: 44.7 µM [activator, single point]	–
Cc1c(C)n(C(=O)CN2CCC(C)CC2)c2ccccc12	inconclusive: 35.5 µM [inhibitor, single point]	–
COc1cccc(/C=C2\SC(=S)N(N3CCOCC3)C2=O)c1OC	inconclusive: 14.1 µM [inhibitor, partial curve]	–
CCOC(=O)c1cnc(SCc2nc(N)nc(Nc3ccc(C)cc3)n2)nc1N	inconclusive: 2.51 µM [inhibitor, full curve, poor fit]	–
CN(C)c1ccc(NC(=O)c2cn(-c3ccccc3)nc2-c2cccs2)cc1	inconclusive: 11.2 µM [inhibitor, partial curve]	–
CCOC(=O)c1c(C)[nH]c(C(=O)OCC(=O)N2c3ccccc3CC2C)c1C (stereo unspecified)	inconclusive: 3.55 µM [inhibitor, partial curve]	–
COc1cccc(/C=N/n2nnnc2N)c1O	inconclusive: 6.31 µM [inhibitor, partial curve]	–
CCOC(=O)N1CCN(c2ncc3c(n2)CC(c2ccc(OC)c(OC)c2)CC3=O)CC1 (stereo unspecified)	inconclusive: 7.94 µM [inhibitor, full curve, poor fit]	–
O=C(N/N=C/C(Br)=C\c1ccccc1)c1ccc2nc[nH]c2c1	inconclusive: 25.1 µM [inhibitor, single point]	–
S=c1[nH]c(-c2ccc(Cl)cc2)cs1	inconclusive: 25.1 µM [inhibitor, single point]	–

Structure (SMILES)	Potency	activity, negative = inhibition
CCCCOc1ccccc1NC(=O)CC1Sc2ccccc2NC1=O (stereo unspecified)	inactive	–
C=C1c2cccc(O)c2C(O)=C2C(=O)[C@]3(O)C(O)=C(C(N)=O)C(=O)[C@@H](N(C)C)[C@@H]3[C@@H](O)[C@H]12	inconclusive: 20 µM [inhibitor, single point]	–
Cc1cc(C)nc(N2N=C(C(C)(C)C)CC2=O)n1	inconclusive: 5.62 µM [inhibitor, partial curve]	–
CC(=O)c1ccc(N2CCN(C(=O)/C=C/c3ccc(S(=O)(=O)NCc4ccco4)cc3)CC2)cc1	inconclusive: 4.47 µM [inhibitor, single point]	–
O=C(CSc1ncn(-c2ccccc2)n1)Nc1ccc2c(c1)OCO2	inconclusive: 0.891 µM [inhibitor, partial curve, poor fit]	–
CCOC(=O)c1c(CSc2ccccc2)n(C)c2ccc(O)c(CN3CCOCC3)c12	inconclusive: 28.2 µM [inhibitor, single point]	–
Cc1cc(N(CCO)CCO)ccc1C(c1ccc(N(CCO)CCO)cc1C)c1ccccc1Cl	inconclusive: 39.8 µM [inhibitor, single point]	–
Cc1ccccc1C(=O)Nc1nnc(S(=O)(=O)N2CCc3ccccc32)s1	inconclusive: 11.2 µM [inhibitor, partial curve]	–
N#CC1=C(N)Oc2n[nH]c(-c3cccs3)c2C1C1C=CCCC1 (stereo unspecified)	inconclusive: 35.5 µM [inhibitor, single point]	–
CCOc1ccc2[nH]c3c(N4CCN(C(=O)c5ccco5)CC4)ncnc3c2c1	inconclusive: 11.2 µM [inhibitor, partial curve, poor fit]	–
COc1ccccc1NC(=S)N/N=C1\CC(C)(C)Oc2ccc(O)cc21	inconclusive: 17.8 µM [inhibitor, partial curve, poor fit]	–
Cc1cc2ccccc2n1CCNC(=O)COc1ccc2ccccc2c1	inconclusive: 14.1 µM [inhibitor, partial curve]	–
CC1=CC(C)(C)Nc2cc(C)c(C)cc21	inconclusive: 28.2 µM [inhibitor, single point]	–
CCC(=NCCc1c(C)[nH]c2ccc(C)cc12)C1=C(O)CC(c2ccccc2)CC1=O (stereo unspecified)	inconclusive: 17.8 µM [inhibitor, partial curve, poor fit]	–
Cc1ccc(SCC(=O)Nc2ccc(N3CCN(C)CC3)c(F)c2)cc1	inconclusive: 20 µM [inhibitor, partial curve]	–
COc1ccc(OC)c(Nc2ncnc3c2cnn3-c2cccc(C)c2)c1	inconclusive: 15.8 µM [inhibitor, partial curve]	–
CCOc1cccc(Nc2cc3n(c(=O)n2)CCc2cc(OC)c(OC)cc2-3)c1	inconclusive: 12.6 µM [inhibitor, partial curve]	–
CCOc1ccc(C(c2c(NC(=O)c3ccccc3)sc(C)c2C)N2CCN(C)CC2)cc1 (stereo unspecified)	inconclusive: 25.1 µM [inhibitor, partial curve]	–
Cc1ccc(S(=O)(=O)NCCNc2ccccc2[N+](=O)[O-])cc1	inconclusive: 17.8 µM [inhibitor, partial curve]	–
C[C@@H](c1ccccc1)N1C(=O)[C@H]2[C@@H]3[C@H](O)C=CC(=O)[C@H]3CC[C@H]2C1=O	–	inactive: -11.2% [at 11.5 µM]
Cc1cc(Br)ccc1SCC(=O)OCC(=O)NC(C)c1ccccc1 (stereo unspecified)	inconclusive: 22.4 µM [inhibitor, single point]	–
CCCCCC(=O)Nc1nc(C)c(-c2csc(Nc3ccc(Cl)cc3)n2)s1	active: 11.2 µM	–
